{"source": "paper PMC4526674", "binders": {"B1": {"name": "Inactive, inhibitor-bound TG2 deletion mutant 1-465 (1-465-DP3-3) (domain or fragment, UniProt P21980 1-465)", "chain": "MAEELVLERCDLELETNGRDHHTADLCREKLVVRRGQPFWLTLHFEGRNYEASVDSLTFSVVTGPAPSQEAGTKARFPLRDAVEEGDWTATVVDQQDCTLSLQLTTPANAPIGLYRLSLEASTGYQGSSFVLGHFILLFNAWCPADAVYLDSEEERQEYVLTQQGFIYQGSAKFIKNIPWNFGQFEDGILDICLILLDVNPKFLKNAGRDCSRRSSPVYVGRVVSGMVNCNDDQGVLLGRWDNNYGDGVSPMSWIGSVDILRRWKNHGCQRVKYGQCWVFAAVACTVLRCLGIPTRVVTNYNSAHDQNSNLLIEYFRNEFGEIQGDKSEMIWNFHCWVESWMTRPDLQPGYEGWQALDPTPQEKSEGTYCCGPVPVRAIKEGDLSTKYDAPFVFAEVNADVVDWIQQDDGSVHKSINRSLIVGLKISTKSVGRDEREDITHTYKYPEGSSEEREAFTRANHLNKL", "modifications": "active site covalently linked to the inhibitor Ac-P-DON-LPF-NH2 (DP3-3)"}, "B2": {"name": "TG2 deletion mutant 1-465, active, E. coli-produced (domain or fragment, UniProt P21980 1-465)", "chain": "B1 chain"}, "B3": {"name": "Recombinant human transglutaminase 2 (TG2), Sf9-produced (enzyme, UniProt P21980 1-687)", "chain": "MAEELVLERCDLELETNGRDHHTADLCREKLVVRRGQPFWLTLHFEGRNYEASVDSLTFSVVTGPAPSQEAGTKARFPLRDAVEEGDWTATVVDQQDCTLSLQLTTPANAPIGLYRLSLEASTGYQGSSFVLGHFILLFNAWCPADAVYLDSEEERQEYVLTQQGFIYQGSAKFIKNIPWNFGQFEDGILDICLILLDVNPKFLKNAGRDCSRRSSPVYVGRVVSGMVNCNDDQGVLLGRWDNNYGDGVSPMSWIGSVDILRRWKNHGCQRVKYGQCWVFAAVACTVLRCLGIPTRVVTNYNSAHDQNSNLLIEYFRNEFGEIQGDKSEMIWNFHCWVESWMTRPDLQPGYEGWQALDPTPQEKSEGTYCCGPVPVRAIKEGDLSTKYDAPFVFAEVNADVVDWIQQDDGSVHKSINRSLIVGLKISTKSVGRDEREDITHTYKYPEGSSEEREAFTRANHLNKLAEKEETGMAMRIRVGQSMNMGSDFDVFAHITNNTAEEYVCRLLLCARTVSYNGILGPECGTKYLLNLNLEPFSEKSVPLCILYEKYRDCLTESNLIKVRALLVEPVINSYLLAERDLYLENPEIKIRILGEPKQKRKLVAEVSLQNPLPVALEGCTFTVEGAGLTEEQKTVEIPDPVEAGEEVKVRMDLLPLHMGLHKLVVNFESDKLKAVKGFRNVIIGPA"}}, "key": {"[1]": {"molecular_target": "Inactive, inhibitor-bound TG2 deletion mutant 1-465 (1-465-DP3-3) (human) (UniProt P21980)", "assay": "dynamic light scattering; 0.2 mg/ml inhibitor-bound protein in 20 mM Tris pH 7.2, 150 mM NaCl with 1 mM EDTA, 37°C; both purified"}, "[2]": {"molecular_target": "Inactive, inhibitor-bound TG2 deletion mutant 1-465 (1-465-DP3-3) (human) (UniProt P21980)", "assay": "dynamic light scattering; 0.2 mg/ml inhibitor-bound protein in 20 mM Tris pH 7.2, 150 mM NaCl with 9 mM (also 5 mM and 2.5 mM) CaCl2, 37°C; both purified"}, "[3]": {"molecular_target": "Inactive, inhibitor-bound TG2 deletion mutant 1-465 (1-465-DP3-3) (human) (UniProt P21980)", "assay": "cross-linking; BS3 (0.5 mM) capture of non-covalent complexes; DP3-3-treated protein pre-incubated with 5 mM CaCl2 for 30 min at 37°C in 20 mM HEPES pH 7.5, 150 mM NaCl; SDS-PAGE; both purified"}, "[4]": {"molecular_target": "TG2 deletion mutant 1-465, active, E. coli-produced (human) (UniProt P21980)", "assay": "cross-linking; enzymatic self-crosslinking by TG2's own transglutaminase activity; 5 mM (or 1 mM) CaCl2, 37°C, TBS pH 7.4 (50 mM Tris HCl, 150 mM NaCl); products resolved by 4-20% gradient SDS-PAGE, Coomassie; both purified"}, "[5]": {"molecular_target": "Recombinant human transglutaminase 2 (TG2), Sf9-produced (human) (UniProt P21980)", "assay": "cross-linking; BS3 (0.5 mM) capture of non-covalent complexes; TG2 pre-incubated with 1 mM GTP for 30 min at 37°C in 20 mM HEPES pH 7.5, 150 mM NaCl; SDS-PAGE; both purified"}}, "note": "Results are given in words; binding and its absence hold for the method and conditions named.", "data": [{"binder": "B1", "values": [{"measurement": "binding", "setting": "[1]", "result": "no binding (tested: 0.2 mg/ml)"}, {"measurement": "binding", "setting": "[2]", "result": "no binding (tested: 0.2 mg/ml)"}, {"measurement": "binding", "setting": "[3]", "result": "no binding"}]}, {"binder": "B2", "values": [{"measurement": "binding", "setting": "[4]", "result": "no binding (tested: 0.7 μM to 4.2 μM enzyme)"}]}, {"binder": "B3", "values": [{"measurement": "binding", "setting": "[5]", "result": "no binding (condition: with 1 mM GTP)"}]}]}
